Laboratory results: ChEMBL document CHEMBL1154674, “Synthesis and evaluation of three 18F-labeled aminophenylbenzothiazoles as amyloid imaging agents” (J Med Chem, 2009)
The source gives many values for each of these; only a part stands here.

Key:
Format in all cases: ADME, organism-based, Macaca mulatta
[1] = Drug level in normal rhesus monkey cerebellum assessed as standard uptake value at 96.3 MBq, iv after 2.5 mins by microPET; settings: in vivo
[2] = Drug level in normal rhesus monkey frontal cortex assessed as standard uptake value at 96.3 MBq, iv after 47.5 mins by microPET; settings: in vivo
[3] = Drug level in normal rhesus monkey white matter assessed as standard uptake value at 96.3 MBq, iv after 6 mins by microPET; settings: in vivo, 0.1 h
[4] = Drug level in normal rhesus monkey thalamus assessed as standard uptake value at 96.3 MBq, iv after 8 mins by microPET; settings: in vivo
[5] = Drug level in normal rhesus monkey white matter assessed as standard uptake value at 96.3 MBq, iv after 0.5 mins by microPET; settings: in vivo
[6] = Drug level in normal rhesus monkey cerebellum assessed as standard uptake value at 96.3 MBq, iv after 8 mins by microPET; settings: in vivo
[7] = Drug level in normal rhesus monkey parietal cortex assessed as standard uptake value at 96.3 MBq, iv after 17.5 mins by microPET; settings: in vivo
[8] = Drug level in normal rhesus monkey parietal cortex assessed as standard uptake value at 96.3 MBq, iv after 14 mins by microPET; settings: in vivo
[9] = Drug level in normal rhesus monkey cerebellum assessed as standard uptake value at 96.3 MBq, iv after 3.5 mins by microPET; settings: in vivo
[10] = Drug level in normal rhesus monkey pons assessed as standard uptake value at 96.3 MBq, iv after 52.5 mins by microPET; settings: in vivo, 0.875 h
[11] = Drug level in normal rhesus monkey white matter assessed as standard uptake value at 96.3 MBq, iv after 145 mins by microPET; settings: in vivo
[12] = Drug level in normal rhesus monkey parietal cortex assessed as standard uptake value at 96.3 MBq, iv after 12 mins by microPET; settings: in vivo, 0.2 h
[13] = Drug level in normal rhesus monkey cerebellum assessed as standard uptake value at 96.3 MBq, iv after 105 mins by microPET; settings: in vivo, 1.75 h
[14] = Drug level in normal rhesus monkey parietal cortex assessed as standard uptake value at 96.3 MBq, iv after 135 mins by microPET; settings: in vivo, 2.25 h
[15] = Drug level in normal rhesus monkey pons assessed as standard uptake value at 109.4 MBq, iv after 69 mins by microPET; settings: in vivo, 1.15 h
[16] = Drug level in normal rhesus monkey cerebellum assessed as standard uptake value at 109.4 MBq, iv after 123 mins by microPET; settings: in vivo, 2.05 h
[17] = Drug level in normal rhesus monkey white matter assessed as standard uptake value at 109.4 MBq, iv after 63 mins by microPET; settings: in vivo, 1.05 h
[18] = Drug level in normal rhesus monkey thalamus assessed as standard uptake value at 109.4 MBq, iv after 6.5 mins by microPET; settings: in vivo
[19] = Drug level in normal rhesus monkey white matter assessed as standard uptake value at 109.4 MBq, iv after 0.125 mins by microPET; settings: in vivo, 7 s
[20] = Drug level in normal rhesus monkey parietal cortex assessed as standard uptake value at 109.4 MBq, iv after 3.5 mins by microPET; settings: in vivo
[21] = Drug level in normal rhesus monkey thalamus assessed as standard uptake value at 109.4 MBq, iv after 75 mins by microPET; settings: in vivo, 1.25 h
[22] = Drug level in normal rhesus monkey cerebellum assessed as standard uptake value at 109.4 MBq, iv after 87 mins by microPET; settings: in vivo, 1.45 h
[23] = Drug level in normal rhesus monkey white matter assessed as standard uptake value at 109.4 MBq, iv after 37.5 mins by microPET; settings: in vivo, 0.625 h
[24] = Drug level in normal rhesus monkey parietal cortex assessed as standard uptake value at 109.4 MBq, iv after 47.5 mins by microPET; settings: in vivo
[25] = Drug level in normal rhesus monkey pons assessed as standard uptake value at 109.4 MBq, iv after 0.625 mins by microPET; settings: in vivo, 38 s
[26] = Drug level in normal rhesus monkey frontal cortex assessed as standard uptake value at 109.4 MBq, iv after 87 mins by microPET; settings: in vivo, 1.45 h
[27] = Drug level in normal rhesus monkey parietal cortex assessed as standard uptake value at 109.4 MBq, iv after 81 mins by microPET; settings: in vivo, 1.35 h
[28] = Drug level in normal rhesus monkey parietal cortex assessed as standard uptake value at 81.2 MBq, iv after 75 mins by microPET; settings: in vivo, 1.25 h
[29] = Drug level in normal rhesus monkey parietal cortex assessed as standard uptake value at 81.2 MBq, iv after 4.5 mins by microPET; settings: in vivo, 0.075 h
[30] = Drug level in normal rhesus monkey pons assessed as standard uptake value at 81.2 MBq, iv after 65 mins by microPET; settings: in vivo
[31] = Drug level in normal rhesus monkey thalamus assessed as standard uptake value at 81.2 MBq, iv after 6 mins by microPET; settings: in vivo, 0.1 h
[32] = Drug level in normal rhesus monkey thalamus assessed as standard uptake value at 81.2 MBq, iv after 10 mins by microPET; settings: in vivo
[33] = Drug level in normal rhesus monkey white matter assessed as standard uptake value at 81.2 MBq, iv after 27.5 mins by microPET; settings: in vivo
[34] = Drug level in normal rhesus monkey cerebellum assessed as standard uptake value at 81.2 MBq, iv after 105 mins by microPET; settings: in vivo, 1.75 h
[35] = Drug level in normal rhesus monkey cerebellum assessed as standard uptake value at 81.2 MBq, iv after 32.5 mins by microPET; settings: in vivo
[36] = Drug level in normal rhesus monkey frontal cortex assessed as standard uptake value at 81.2 MBq, iv after 75 mins by microPET; settings: in vivo, 1.25 h
[37] = Drug level in normal rhesus monkey parietal cortex assessed as standard uptake value at 81.2 MBq, iv after 85 mins by microPET; settings: in vivo
[38] = Drug level in normal rhesus monkey frontal cortex assessed as standard uptake value at 81.2 MBq, iv after 145 mins by microPET; settings: in vivo
[39] = Drug level in normal rhesus monkey white matter assessed as standard uptake value at 81.2 MBq, iv after 12 mins by microPET; settings: in vivo, 0.2 h
[40] = Drug level in normal rhesus monkey thalamus assessed as standard uptake value at 81.2 MBq, iv after 75 mins by microPET; settings: in vivo, 1.25 h
[41] = Drug level in normal rhesus monkey white matter assessed as standard uptake value at 81.2 MBq, iv after 135 mins by microPET; settings: in vivo, 2.25 h
[42] = Drug level in normal rhesus monkey thalamus assessed as standard uptake value at 81.2 MBq, iv after 14 mins by microPET; settings: in vivo
[43] = Drug level in normal rhesus monkey pons assessed as standard uptake value at 81.2 MBq, iv after 52.5 mins by microPET; settings: in vivo, 0.875 h
[44] = Drug level in normal rhesus monkey cerebellum assessed as standard uptake value at 81.2 MBq, iv after 6 mins by microPET; settings: in vivo, 0.1 h

CN(C)c1ccc2nc(-c3ccc([18F])cc3)sc2c1
SUV [1]: 1.56 | SUV [2]: 1.95 | SUV [3]: 1.21 | SUV [4]: 2.13 | SUV [5]: 0.36 | SUV [6]: 1.64 | SUV [7]: 2.05 | SUV [8]: 2.18 | SUV [9]: 1.55 | SUV [10]: 1.75 | SUV [11]: 1.63 | SUV [12]: 2.21 | SUV [13]: 0.91 | SUV [14]: 1.27

Nc1ccc2nc(-c3ccc([18F])cc3)sc2c1
SUV [15]: 4.94 | SUV [16]: 2.29 | SUV [17]: 3.51 | SUV [18]: 5.27 | SUV [19]: 0 | SUV [20]: 5 | SUV [21]: 5.16 | SUV [22]: 2.72 | SUV [23]: 3.27 | SUV [24]: 4.52 | SUV [25]: 1.27 | SUV [26]: 4.32 | SUV [27]: 3.92

CNc1ccc2nc(-c3ccc([18F])cc3)sc2c1
SUV [28]: 3.109 | SUV [29]: 4.922 | SUV [30]: 5.562 | SUV [31]: 4.921 | SUV [32]: 4.593 | SUV [33]: 3.489 | SUV [34]: 1.863 | SUV [35]: 2.442 | SUV [36]: 5.076 | SUV [37]: 2.948 | SUV [38]: 4.488 | SUV [39]: 3.656 | SUV [40]: 5.47 | SUV [41]: 4.079 | SUV [42]: 4.764 | SUV [43]: 5.634 | SUV [44]: 2.617
